# Assay results taken from the supplement of paper PMC3334620.
# The full ranking holds about 33,000 sequences; the median of “E-score (-0.5 to 0.5)” is about -0.016, and the highest 2% start at about 0.32. The list shows a part of the results.
# Target: T1, Stp1 (UniProt B3LFK1)
# T1 sequence: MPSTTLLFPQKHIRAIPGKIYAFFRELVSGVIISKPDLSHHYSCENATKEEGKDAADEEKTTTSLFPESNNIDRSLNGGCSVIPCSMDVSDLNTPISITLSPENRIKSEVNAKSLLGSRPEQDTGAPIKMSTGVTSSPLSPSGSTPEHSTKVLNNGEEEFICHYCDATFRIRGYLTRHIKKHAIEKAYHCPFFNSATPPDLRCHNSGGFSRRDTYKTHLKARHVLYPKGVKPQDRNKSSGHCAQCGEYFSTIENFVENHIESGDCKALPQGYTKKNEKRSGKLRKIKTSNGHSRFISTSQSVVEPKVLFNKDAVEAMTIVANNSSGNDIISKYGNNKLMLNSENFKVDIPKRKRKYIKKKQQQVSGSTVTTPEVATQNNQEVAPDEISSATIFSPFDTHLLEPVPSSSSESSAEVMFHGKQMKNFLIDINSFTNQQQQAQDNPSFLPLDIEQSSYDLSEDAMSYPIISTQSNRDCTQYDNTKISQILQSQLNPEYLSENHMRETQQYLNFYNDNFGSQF
# Experiment: PBM E-score (8-mer binding enrichment) (E-score (-0.5 to 0.5)); higher = stronger / more preferred TF binding; most listed sequences are background and not binding sites
# Details: protein concentration: 200 nM; construct: GST-full length
# In short: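 Bound GST-tagged yeast transcription factors, applied at about 100-200 nM to double-stranded universal all-10-mer Agilent arrays, were detected with fluorescent anti-GST. Scans were normalised with masliner. A modified Wilcoxon-Mann-Whitney statistic, the E-score, was assigned to each ungapped eight-base word pooled with its reverse complement by the Universal PBM Analysis Suite.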
row,Sequence,PBM E-score
1,CACCACCG,-0.19
2,ACTAAGCT,0.075
3,AGGTACCC,-0.414
4,CATCCAAC,-0.104
5,CTTATAGC,-0.0511
6,ATGAGGCA,0.332
7,GACGTTGC,-0.08
8,ATATCATA,0.0651
9,ATATGCGC,0.111
10,ATAGGGGA,-0.34
11,GGCCGTGA,0.126
12,GCAGTCGC,0.0609
13,ATTGTAAG,-0.0724
14,CAATGCTC,-0.0633
15,CAAACTTG,-0.0331
16,CACGACTC,-0.162
17,GAACAACC,0.0417
18,CGGCACCG,0.437
19,AATGCCGC,0.465
20,GAGGGTGA,-0.132
21,AACCCGGG,-0.0425
22,AAGTACGG,0.22
23,TAGCTAGA,0.00307
24,CTATGAGC,-0.0622
25,CATAGTAG,-0.0254

row,Sequence,PBM E-score
1,AAGTCCCC,-0.26
2,AACACATA,0.129
3,GTGCCTGA,-0.105
4,TCAACAAA,0.128
5,TACACCGA,-0.125
6,ATATGCCA,0.153
7,AACCCGGT,-0.236
8,GAAAAGGC,0.145
9,CCACGCAA,0.0719
10,CAAGAGCA,-0.128
11,ATCCACCA,-0.152
12,CTTGCTTA,-0.203
13,ACGCGCAC,-0.0204
14,GAAGAGCA,-0.229
15,AAAGAGAT,-0.102
16,TACAGATA,0.0785
17,AATCCTGC,0.0377
18,CCACCGAC,-0.174
19,AAACGATG,0.101
20,TAGCTGCA,-0.158
21,ATATGGGC,-0.0537
22,ACAACGGT,-0.12
23,ACACGGTA,0.124
24,CACCCAGC,-0.24
25,ACTCGAGT,0.176

row,Sequence,PBM E-score
1,GCTCAGAC,-0.153
2,AACCCGTT,0.0288
3,TCGGCTAA,0.145
4,AGACGGTA,-0.0204
5,TAGTTGGA,-0.0689
6,AGAATGAA,0.165
7,CGCCTCCC,-0.0341
8,GAAGCTCA,-0.241
9,AATTGGGG,-0.25
10,AGGCAGCC,0.0179
11,AAAACGGG,0.113
12,AAGCCGGT,-0.0859
13,GCGGGAGC,-0.236
14,CAAGGGAG,-0.0939
15,CCGTACGC,0.327
16,ATGTATGC,0.114
17,ATCCCCAT,0.0301
18,ACTAGACA,0.0677
19,CGTAGATC,0.057
20,ATCTAATA,0.134
21,CCCCATCA,-0.203
22,CAGCTATC,-0.201
23,CGTCCTAG,-0.166
24,AAAGACTA,0.00271
25,TATTGTGA,0.0206

row,Sequence,PBM E-score
1,AGCTTCGC,-0.0523
2,AGAATAGG,0.0673
3,AAAACGAC,0.0313
4,ATGCAGCG,0.0428
5,AGTGGTAC,-0.0919
6,ATGATCCG,0.151
7,GTTCCGGA,-0.115
8,CCTGCCAG,-0.259
9,ACGTTCCG,-0.106
10,AGAGGATA,-0.0877
11,CTTTCCTC,-0.0795
12,GCGACCCA,-0.234
13,AATCCTAT,0.1
14,CCAGGTTC,-0.226
15,CCATCAGC,-0.131
16,CCCAATCC,-0.251
17,GGAGACAA,0.0426
18,CAAAGGTG,-0.0209
19,GGCCAGCA,-0.139
20,GGCAGGCC,-0.117
21,CCCCCCGC,-0.288
22,GCTGTGCA,-0.129
23,ACGCGAGC,0.00376
24,ATGAGAAG,-0.203
25,AGGCGCCT,0.383

row,Sequence,PBM E-score
1,TCGAGTAA,0.0232
2,AGCTGTTG,0.0858
3,TTGGAAAA,0.177
4,AGGCAATA,0.227
5,CTTGGGTC,-0.136
6,ACGGGGAT,-0.0326
7,AACGAATA,-0.119
8,CACCCTCG,-0.0726
9,GCAGTAGC,-0.267
10,CAAACTGG,-0.136
11,GAGGTCCA,-0.116
12,CAGCCATA,-0.0858
13,GTGTCTCA,-0.0138
14,CACAGAAC,-0.213
15,CTAGGGAC,-0.0838
16,CGAGGCCG,0.106
17,AAGTCTGA,-0.299
18,GACATCTA,-0.0238
19,CCACATGG,0.0401
20,CACGTGTA,0.0091
21,CTTGTCAA,0.225
22,AATAATAT,0.275
23,AGCCATTC,-0.0844
24,AGGAGAAG,-0.19
25,AGTACGAC,0.0357

row,Sequence,PBM E-score
1,AACGCAAG,-0.143
2,CAACACGA,0.0474
3,CGAATAAG,-0.0318
4,CAAGTCCA,-0.219
5,CGGCCCGA,-0.0193
6,CAACCCCC,-0.185
7,TCGACCGA,-0.0119
8,ACCACGCC,0.0954
9,GCCTACGA,0.178
10,GTATCGTA,0.141
11,TAAGTCAA,-0.0101
12,GACAATCC,-0.0902
13,CTTATAGA,0.0839
14,ACCATTGA,-0.00978
15,AAGCAAGA,-0.0272
16,CACATTCA,-0.0223
17,AGATCTCG,-0.175
18,CCAAAAAC,0.103
19,AATCAGTC,-0.0135
20,ACTATCAG,-0.0716
21,CAGACCGC,0.0528
22,AGTACTGA,-0.0258
23,ATGCTAGC,0.0222
24,ATGGTTTC,0.0834
25,CAATTGGA,-0.021

row,Sequence,PBM E-score
1,ACCGGGCG,-0.181
2,CTAATGGC,0.00836
3,ATTCACTG,-0.00846
4,AGCGTGCA,0.0143
5,ATAGGCCA,-0.149
6,CACTCGCA,-0.154
7,AAAACTCT,-0.0562
8,CGGTGGGA,-0.204
9,CCCACAAC,-0.0446
10,CCCTGTAG,-0.231
11,AGACGTCC,-0.107
12,ATCTGAAA,0.134
13,CACCGGGG,-0.345
14,GATACTGC,0.146
15,GGTGGATA,-0.0903
16,CACTCAAC,0.0238
17,TAGATAAA,0.128
18,ACGAAACG,0.238
19,AAACCACA,0.109
20,AGAGCTTC,-0.215
21,AGGTCCTG,-0.294
22,CGCTCGAA,-0.176
